PubChem BioAssay AID360 (National Center for Advancing Translational Sciences (NCATS), 2006)
In all, about 48,000 compounds went through this assay and about 550 (1.1%) were called active. Not shown: some 4% with an inconclusive outcome. Cut-off read from the data, not from the text of the source: active = potency below about 15 µM; inconclusive = mostly about 16 µM to 33 µM; inactive = weaker than that. The list shows a part of the results.

biological target: Lysosomal acid glucosylceramidase (Homo sapiens) (UniProt P04062); experiment: Glucocerebrosidase; conditions: purified enzyme, resorufin glucoside fluorescence (screen aimed at inhibitors), 20 min;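 note: the screen sought inhibitors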
Procedure, shortened: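 Normal human glucocerebrosidase (0.2 nM final) was assayed with resorufin β-D-glucopyranoside (30 uM final) in 50mM citric acid/KH2PO4, 10mM sodium taurocholate, 0.01% tween-20, pH 5.9. Compounds were titrated; fluorescence (Ex 548, Em 600) read after 20 min at RT.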
Potency is the fitted concentration of half-maximal effect.

Sequence of UniProt P04062 (P04062 whole entry, looked up): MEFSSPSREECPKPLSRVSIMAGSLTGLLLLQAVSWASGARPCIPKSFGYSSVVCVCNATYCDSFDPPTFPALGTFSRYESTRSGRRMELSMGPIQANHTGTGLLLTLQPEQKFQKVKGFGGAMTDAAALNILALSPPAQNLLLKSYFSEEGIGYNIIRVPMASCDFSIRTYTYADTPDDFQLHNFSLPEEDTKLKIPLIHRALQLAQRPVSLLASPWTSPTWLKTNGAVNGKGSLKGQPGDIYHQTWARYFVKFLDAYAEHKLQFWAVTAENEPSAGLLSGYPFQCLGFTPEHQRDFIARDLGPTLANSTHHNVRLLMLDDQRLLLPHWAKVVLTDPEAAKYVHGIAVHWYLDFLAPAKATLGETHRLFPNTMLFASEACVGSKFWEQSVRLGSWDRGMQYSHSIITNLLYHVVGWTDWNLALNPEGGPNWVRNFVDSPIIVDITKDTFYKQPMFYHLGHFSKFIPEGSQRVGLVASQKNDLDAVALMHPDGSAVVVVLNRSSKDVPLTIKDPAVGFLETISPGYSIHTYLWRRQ

Potency, inactive:
CN(c1ccc(C(=O)NCCC2=CCCCC2)cc1)S(C)(=O)=O > 76.9 µM
CCN(CC)S(=O)(=O)c1ccc2c(c1)nc(SCc1nc3ccsc3c(=O)[nH]1)n2CC > 76.9 µM
O=C(NCc1ccco1)c1cc2ccccc2c(=O)o1 > 76.9 µM
CC(NC(=O)C1CCCCC1)c1ccc2c(c1)OCCO2 (stereo unspecified) > 76.9 µM
CCn1c(SCC(=O)c2cc(C)n(-c3ccc(C(=O)OC)cc3)c2C)nnc1-c1cccnc1 > 76.9 µM
O=C(CSc1ncccc1-c1nc2ccccc2[nH]1)NC1CC1 > 76.9 µM
CCOC(=O)c1nnn(CC(=O)Nc2ccccc2OC)c1C(=O)OCC > 76.9 µM
O=C(Nc1ccc(Cl)cc1)C1CC=CCC1C(=O)OCC(F)(F)C(F)F (stereo unspecified) > 76.9 µM
CC(C)OP(=O)(c1ccc(N(C)C)cc1)C(O)c1ccncc1 (stereo unspecified) > 76.9 µM
COc1cccc(C(=O)NC(C)C(c2cccs2)N2CCN(C)CC2)c1 (stereo unspecified) > 76.9 µM
CCOc1cc(C)c(C(C)C)cc1S(=O)(=O)NCc1ccccn1 > 76.9 µM
Oc1ccccc1C1Nc2cccc3cccc(c23)N1 > 76.9 µM
CCCCCNc1c(C(=O)OCC)c(=O)[nH]c2ccccc12 > 76.9 µM
N#CC1=C(N)SC(N)=C(C#N)C1CCC1CCCCC1
Cc1nnc(NC2=NCCC2)o1 > 76.9 µM
Cc1ccc(Nc2ncc3c(n2)CC(c2ccco2)CC3=O)c(C)c1 (stereo unspecified) > 76.9 µM
COc1cc(CN2CCC(C(=O)N3CCN(c4ccccc4F)CC3)CC2)cc(OC)c1OC > 76.9 µM
CS(=O)(=O)N(CC(=O)NCc1ccc2c(c1)OCO2)c1ccccc1 > 76.9 µM
O=C1CN(C(=O)COC(=O)COc2ccc3c(c2)CCC3)c2ccccc2N1 > 76.9 µM
CCc1nc2ccccc2n(CCOCCn2c(=O)c(CC)nc3ccccc32)c1=O > 76.9 µM
C=CCN1C(=O)CN=C1Nc1ccc(OC)cc1OC > 76.9 µM
O=C(O)CNS(=O)(=O)c1ccc(Br)s1 > 76.9 µM
CCOC(=O)C1C(=O)NC(N2CCCCC2)=NC1C(C)C (stereo unspecified) > 76.9 µM
CC1CCCCN1C(=O)COc1ccc(NC(=O)c2ccco2)cc1 (stereo unspecified) > 76.9 µM
Cc1cc(C)n(C/C=C/Cn2nc(C)cc2C)n1 > 76.9 µM
COc1ccccc1-c1nnc(NC(=O)OCC(C)C)s1 > 76.9 µM
CC1(C)CC(=O)C(C=NCCN2CCNC2=O)=C(O)C1 > 76.9 µM
COc1cc(CN(C(=O)c2ccco2)c2ccc(C)cc2)ccc1O > 76.9 µM
CCCOc1c(OC)cccc1C1CC(=O)Nc2cc3c(cc21)OCO3 (stereo unspecified) > 76.9 µM
CC(C)Cn1c(SCC#N)nc2ccccc2c1=O > 76.9 µM
COC(=O)c1ccccc1NC(=O)COC(=O)c1cccnc1 > 76.9 µM
COc1cccc(N2CC(O)=C(c3nc4ccccc4c(=O)[nH]3)C2=N)c1 > 76.9 µM
COc1nc(Nc2cccc(C(F)(F)F)c2)nc(OC)n1 > 76.9 µM
CCN1CCN(Cc2nc3c(c(=O)n(C)c(=O)n3C)n2Cc2cccc3ccccc23)CC1 > 76.9 µM
CC1(c2ccc(Cl)cc2Cl)OCC(Cn2ccnc2)O1 (stereo unspecified) > 76.9 µM
CCSc1nnc(NC(=O)Cc2ccc(OC)c(S(=O)(=O)N3CCOCC3)c2)s1 > 76.9 µM
COc1ccccc1C(=O)N1CCN(C2CCN(Cc3ccccc3)CC2)CC1 > 76.9 µM
C[C@H](NC(=O)OC(C)(C)C)C(=O)NCC1CCC(C(=O)O)CC1 (stereo partly specified) > 76.9 µM
O=C(CN1C(=O)NC2(CCCc3ccccc32)C1=O)N1CCc2ccccc2C1 (stereo unspecified) > 76.9 µM
Cc1cc(C)nc(N2CCN(c3ncnc4c3oc3ccccc34)CC2)n1 > 76.9 µM
O=C(Nc1ccccc1N1CCCCC1)c1ccccc1F > 76.9 µM
Cc1ccc(NC(=O)COC(=O)C2=COCCO2)cc1 > 76.9 µM
CC(=O)NC12CC3CC(C1)CC(C(=O)Nc1nccs1)(C3)C2 > 76.9 µM
O=C(CN1C(=O)CCC1=O)Nc1ccc(Br)cc1 > 76.9 µM
CCC(=O)Nc1cnc(NC(=O)c2cccc(F)c2)cc1C > 76.9 µM
CCOC(=O)CSc1ncnc2c1cnn2-c1ccccc1 > 76.9 µM
CCOC(=O)c1ccccc1NC(=O)COC(=O)C1=COCCO1 > 76.9 µM
Cc1ncc(CC(=O)n2cc(C(=O)c3cc(Cl)ccc3O)cn2)s1 > 76.9 µM
c1ccc(-c2nnc3sc(-c4cc5ccccc5o4)nn23)cc1 > 76.9 µM
CCOC(=O)N1CCC(n2c(SCC(=O)NCCC3=CCCCC3)nc3ccccc3c2=O)CC1 > 76.9 µM
CC(=O)c1cccc(NC(=O)N2CCCC2C(=O)NCCC(C)C)c1 (stereo unspecified) > 76.9 µM
CCn1nc(C(=O)OCC(=O)c2ccc3c(c2)OCCO3)c2ccccc2c1=O > 76.9 µM
CCOc1ccccc1CNC(=O)C1CCN(c2nc3ccccc3o2)CC1 > 76.9 µM
OCCN1CN=C(Nc2nc3ccccc3s2)NC1 > 76.9 µM
Cc1ccc(NC(=O)CCNS(=O)(=O)c2cccc3nonc23)cc1 > 76.9 µM
O=C(NCc1ccc2c(c1)OCO2)C1CCN(Cc2cnn(-c3ccccc3)c2-n2cccc2)CC1 > 76.9 µM
CCc1nnc(SCC(=O)Nc2ccc(C(C)=O)cc2)nc1CC > 76.9 µM
Cn1c(/C(C#N)=C(\O)COc2ccc3ccccc3c2)nc2ccccc21 > 76.9 µM
CC(C)c1ccc(NC(=O)COC(=O)C2=COCCO2)cc1 > 76.9 µM
COc1cc(S(=O)(=O)N2CCOCC2)ccc1NC(=O)COC(=O)c1ccccn1 > 76.9 µM
Cc1ccc(S(=O)(=O)N2CCCCC2C(=O)NCc2ccco2)cc1 (stereo unspecified) > 76.9 µM
CC(=O)NC(CCS(C)(=O)=O)C(=O)Nc1c(F)cccc1F (stereo unspecified) > 76.9 µM
Cc1cc(C)n2cc(CSc3nnc(N)s3)nc2n1 > 76.9 µM
CC(=O)c1c(C)nc(-c2ccc(Cl)cc2Cl)n1O > 76.9 µM
COC(=O)COc1ccc(S(=O)(=O)N2CCOCC2)cc1 > 76.9 µM
CCC(c1nnnn1Cc1ccc2c(c1)OCO2)N1CCN(c2ccccc2)CC1 (stereo unspecified) > 76.9 µM
CC(=O)c1ccc(NC(=O)N[C@@H](CC(C)C)C(=O)O)cc1 > 76.9 µM
COc1ccc(C2C(C(C)=O)=C(O)C(=O)N2CCCn2ccnc2)cc1OC (stereo unspecified) > 76.9 µM
CCc1cc2cc3c(cc2nc1SCC(=O)N1CCN(C(=O)c2ccco2)CC1)OCO3 > 76.9 µM
Cc1ccc(C(C)C)c(OCC(=O)Nc2ccccc2N2CCN(C)CC2)c1
Cc1cc2c(=O)n(CC(=O)NCC(=O)N3CCN(Cc4ccccc4)CC3)cnc2s1 > 76.9 µM
CC(=O)NC(Cc1ccccc1)C(=O)O (stereo unspecified) > 76.9 µM
CCCn1c(SCC(=O)NCC2CCCO2)nc2c1c(=O)n(C)c(=O)n2C (stereo unspecified) > 76.9 µM
CC(C)C(=O)Nc1cccc(C(=O)NCc2ccc(S(N)(=O)=O)cc2)c1 > 76.9 µM
CCOC(=O)C1CCN(C2CC(=O)N(c3ccc(OCC)cc3)C2=O)CC1 (stereo unspecified) > 76.9 µM
CCc1nc2ccccc2n1CC(=O)N1CCN(S(=O)(=O)c2cccc(C(F)(F)F)c2)CC1
COC(=O)c1nnn(CC(=O)Nc2cc(Cl)ccc2C)c1C(=O)OC > 76.9 µM
COc1ccc(N2CCN(CCNC(=O)c3c(C)cc(=O)oc3C)CC2)cc1 > 76.9 µM
CCOC(=O)COc1ccc(S(=O)(=O)N2CCN(c3ccccc3F)CC2)cc1 > 76.9 µM
CCOc1ccc(C(=O)N2CCCCCC2)cc1 > 76.9 µM
O=C(CN1C(=O)CSc2ccccc21)Nc1ccccc1C(=O)N1CCOCC1 > 76.9 µM
COc1ccc(-c2nnn(CC(=O)N(Cc3cccs3)C(C)C(=O)NC3CCCC3)n2)cc1OC (stereo unspecified) > 76.9 µM
C(=C\c1ccccc1)/CN1CCN(c2ncnc3c2oc2ccccc23)CC1 > 76.9 µM
CC(C)(C)n1ncc2c(=O)n(CC(=O)N3CCCc4ccccc43)cnc21 > 76.9 µM
CCNc1nc(Oc2ccc(C(=O)OC)cc2)nc(N(C)C)n1 > 76.9 µM
O=C1c2cccnc2C(=O)N1CO > 76.9 µM
COC(=O)CSc1nnnn1-c1ccccc1 > 76.9 µM
C=CCOC(=O)Nc1c(C(=O)OC)[nH]c2ccccc12 > 76.9 µM
Cc1cccn2c(=O)c3cc(C(=O)NCc4ccco4)c(=N)n(C(C)C)c3nc12 > 76.9 µM
CCOC(=O)C1CCN(C(=O)CN(Cc2ccc(Cl)cc2)S(C)(=O)=O)CC1 > 76.9 µM

Potency, active:
NS(=O)(=O)c1ccc(CCNC(=O)NC2(C(F)(F)F)Oc3ccccc3O2)cc1 13.6 µM
